In patent publication US20230203098A1, “HUMAN TRANSFERRIN RECEPTOR BINDING PEPTIDE” (priority 2020, published 2023):
pKd: −log10 of the molar value. Part of at least one peptide drawing is inferred or uncertain, most often the ends. At least one compound was matched to its structure with a doubt left. Where a SMILES comes first, the peptide text is derived from it. Bridges are numbered along the chain shown (N, C = ends). [ ]: non-standard residue; d: D form. The star is where a group is joined. X2 = O=C(O)c1cc(C(=O)*)ccc1-c1c2ccc(=O)cc-2oc2cc(O)ccc12; NMePhe(3-Cl) = CN[C@@H](Cc1cccc(Cl)c1)C(=O)O; NMeW = CN[C@@H](Cc1c[nH]c2ccccc12)C(=O)O; NMeY = CN[C@@H](Cc1ccc(O)cc1)C(=O)O; Ala(cPr) = N[C@@H](CC1CC1)C(=O)O; tBuAla = CC(C)(C)C[C@H](N)C(=O)O; Ahp(2) = CCCCC[C@H](N)C(=O)O; PEG4 = NCCOCCOCCOCCOCCC(=O)O; Aib = CC(C)(N)C(=O)O

molecular target: transferrin receptor (hTfR) (Homo sapiens, UniProt P02786); assay: Intermolecular interaction evaluation test between transferrin receptor (hTfR) and peptide by surface plasmon resonance (SPR); assay type: binding; settings: SPR, hTfR; class symbols A-D; read-out: KD
Sequence (P02786 whole entry): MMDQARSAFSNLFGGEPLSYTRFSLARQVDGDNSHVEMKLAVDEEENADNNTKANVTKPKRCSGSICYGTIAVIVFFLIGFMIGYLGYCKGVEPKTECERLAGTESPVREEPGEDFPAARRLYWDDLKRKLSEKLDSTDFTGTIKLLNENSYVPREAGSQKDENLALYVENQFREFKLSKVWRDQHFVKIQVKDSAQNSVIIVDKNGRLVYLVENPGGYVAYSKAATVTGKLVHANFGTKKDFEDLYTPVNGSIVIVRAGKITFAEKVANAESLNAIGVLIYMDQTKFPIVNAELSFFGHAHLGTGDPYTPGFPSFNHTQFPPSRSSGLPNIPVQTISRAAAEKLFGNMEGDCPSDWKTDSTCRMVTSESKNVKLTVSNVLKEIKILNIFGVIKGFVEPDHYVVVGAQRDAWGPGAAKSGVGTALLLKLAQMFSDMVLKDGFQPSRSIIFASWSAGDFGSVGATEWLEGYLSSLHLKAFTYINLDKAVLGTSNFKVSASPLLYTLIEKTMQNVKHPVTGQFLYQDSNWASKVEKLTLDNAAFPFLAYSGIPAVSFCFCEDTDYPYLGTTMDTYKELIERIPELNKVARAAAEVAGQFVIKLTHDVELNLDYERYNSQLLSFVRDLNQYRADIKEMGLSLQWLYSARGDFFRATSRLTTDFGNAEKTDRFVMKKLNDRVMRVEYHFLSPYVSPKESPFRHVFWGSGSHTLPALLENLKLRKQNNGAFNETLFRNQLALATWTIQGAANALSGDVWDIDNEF
How it was run: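 Receptor was Ni-captured and EDC/NHS-fixed on an NTA chip; running buffer HEPES pH 8.0 with NaCl, Tween 20, BSA and 1.0% DMSO.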

Row | Compound | pKd
1 | CC[C@H](C)[C@@H]1NC(=O)[C@H](Cc2ccc(OC)cc2)NC(=O)[C@H](Cc2ccc(O)cc2)NC(=O)[C@H](CC(N)=O)NC(=O)[C@H](Cc2c[nH]c3ccccc23)N(C)C(=O)[C@H](C(C)C)NC(=O)[C@H](Cc2cccnc2)N(C)C(=O)[C@H](C(C)C)NC(=O)[C@H](C)NC(=O)CSC[C@@H](C(N)=O)NC(=O)[C@H](Cc2ccc(O)cc2)N(C)C(=O)[C@H](Cc2ccccc2)NC(=O)[C@@H](CCCNC(=N)N)NC(=O)[C@H](CCCNC(=N)N)NC(=O)[C@H]([C@@H](C)CC)NC1=O [compound 450] | 7.00 to 9.00

same assay, conditions: surface plasmon resonance, hTfR; read-out: KD value for hTfR by SPR (class symbol)

Row | Compound | pKd
2 | CC[C@H](C)[C@@H]1NC(=O)[C@H](Cc2ccc(OC)cc2)NC(=O)[C@H](Cc2ccc(O)cc2)NC(=O)[C@H](CC(N)=O)NC(=O)[C@H](Cc2c[nH]c3ccccc23)N(C)C(=O)[C@H](C(C)C)NC(=O)[C@H](Cc2cccc(Cl)c2)N(C)C(=O)[C@H](C(C)C)NC(=O)[C@H](C)NC(=O)CSC[C@@H](C(=O)NCC(=O)NCC(=O)N[C@@H](CO)C(=O)NCC(=O)N[C@@H](CO)C(=O)NCC(=O)N[C@@H](CCCCN=[N+]=[N-])C(N)=O)NC(=O)[C@H](Cc2ccc(O)cc2)N(C)C(=O)[C@H](Cc2ccccc2)NC(=O)[C@@H](CCCNC(=N)N)NC(=O)[C@H](CCCCN)NC(=O)[C@H]([C@@H](C)CC)NC1=O [compound 375] | 7.00 to 9.00
3 | CC[C@H](C)[C@@H]1NC(=O)[C@H](Cc2ccc(OC)cc2)NC(=O)[C@H](Cc2ccc(O)cc2)NC(=O)[C@H](CC(N)=O)NC(=O)[C@H](Cc2c[nH]c3ccccc23)N(C)C(=O)[C@H](C(C)C)NC(=O)[C@H](Cc2cccc(Cl)c2)N(C)C(=O)[C@H](C(C)C)NC(=O)[C@H](C)NC(=O)CSC[C@@H](C(=O)N[C@@H](Cc2ccc(-c3ccccc3)cc2)C(N)=O)NC(=O)[C@H](Cc2ccc(O)cc2)N(C)C(=O)[C@H](Cc2ccccc2)NC(=O)[C@H](CCCNC(=N)N)NC(=O)[C@H](CCCNC(=N)N)NC(=O)[C@H]([C@@H](C)CC)NC1=O [compound 388] | < 6.00
4 | CC[C@H](C)[C@@H]1NC(=O)[C@H](Cc2ccc(OC)cc2)NC(=O)[C@H](Cc2ccc(O)cc2)NC(=O)[C@H](CC(N)=O)NC(=O)[C@H](Cc2c[nH]c3ccccc23)N(C)C(=O)[C@H](C(C)C)NC(=O)[C@H](Cc2cccc(Cl)c2)N(C)C(=O)[C@H](C(C)C)NC(=O)[C@H](C)NC(=O)CSC[C@@H](C(N)=O)NC(=O)[C@H](Cc2ccc(O)cc2)N(C)C(=O)[C@H](Cc2cccc(O)c2)NC(=O)[C@@H](CCCNC(=N)N)NC(=O)[C@H](CCCNC(=N)N)NC(=O)[C@H]([C@@H](C)CC)NC1=O [compound 395] | 7.00 to 9.00

same assay, conditions: surface plasmon resonance, peptide vs hTfR; read-out: KD value for hTfR by SPR (class symbol)

Row | Compound | pKd
5 | CC[C@H](C)[C@@H]1NC(=O)[C@H](Cc2ccc(OC)cc2)NC(=O)[C@H](Cc2ccc(O)cc2)NC(=O)[C@H](CC(N)=O)NC(=O)[C@H](Cc2c[nH]c3ccccc23)N(C)C(=O)[C@H](C(C)C)NC(=O)[C@H](Cc2cccc(Cl)c2)N(C)C(=O)[C@H](C(C)C)NC(=O)[C@H](C)NC(=O)CSC[C@@H](C(=O)NCCOCCOCCOCCOCCC(=O)N[C@H](CCCCNC(=O)c2ccc(-c3c4ccc(=O)cc-4oc4cc(O)ccc34)c(C(=O)O)c2)C(N)=O)NC(=O)[C@H](Cc2ccc(O)cc2)N(C)C(=O)[C@H](Cc2ccccc2)NC(=O)[C@@H](CCCNC(=N)N)NC(=O)C(C)(C)NC(=O)[C@H]([C@@H](C)CC)NC1=O [compound 447] ({CH2CO}-AV[NMePhe(3-Cl)]V[NMeW]NYY(Me)II[Aib][dR]F[NMeY]C[PEG4][dK](X2)-NH2; thioether N-15) | 7.00 to 9.00
6 | CC[C@H](C)[C@@H]1NC(=O)[C@H](Cc2ccc(OC)cc2)NC(=O)[C@H](Cc2ccc(O)cc2)NC(=O)[C@H](CC(N)=O)NC(=O)[C@H](Cc2c[nH]c3ccccc23)N(C)C(=O)[C@H](C(C)C)NC(=O)[C@H](Cc2cccc(Cl)c2)N(C)C(=O)[C@H](C(C)C)NC(=O)[C@H](C)NC(=O)CSC[C@@H](C(=O)NCCOCCOCCOCCOCCC(=O)N[C@H](CCCCNC(=O)c2ccc(-c3c4ccc(=O)cc-4oc4cc(O)ccc34)c(C(=O)O)c2)C(N)=O)NC(=O)[C@H](Cc2ccc(O)cc2)N(C)C(=O)[C@H](Cc2ccccc2)NC(=O)[C@@H](CCCNC(=N)N)NC(=O)[C@H](CCCNC(=N)N)NC(=O)[C@H]([C@@H](C)CC)NC1=O [compound 448] ({CH2CO}-AV[NMePhe(3-Cl)]V[NMeW]NYY(Me)IIR[dR]F[NMeY]C[PEG4][dK](X2)-NH2; thioether N-15) | 7.00 to 9.00

same assay, conditions: surface plasmon resonance, peptide vs hTfR; read-out: KD value, hTfR binding by SPR (class symbol)

Row | Compound | pKd
7 | CC[C@H](C)[C@@H]1NC(=O)[C@H](Cc2ccc(OC)cc2)NC(=O)[C@H](Cc2cccc(O)c2)NC(=O)[C@H](CC(N)=O)NC(=O)[C@H](Cc2c[nH]c3ccccc23)N(C)C(=O)[C@H](C(C)C)NC(=O)[C@H](Cc2cccc(Cl)c2)N(C)C(=O)[C@H](C(C)C)NC(=O)[C@H](C)NC(=O)CSC[C@@H](C(N)=O)NC(=O)[C@H](Cc2ccc(O)cc2)N(C)C(=O)[C@H](Cc2ccccc2)NC(=O)[C@@H](CCCNC(=N)N)NC(=O)[C@H](CCCNC(=N)N)NC(=O)[C@H]([C@@H](C)CC)NC1=O [compound 317] | 7.00 to 9.00
8 | CCOc1ccc(C[C@@H]2NC(=O)[C@H](Cc3ccc(O)cc3)NC(=O)[C@H](CC(N)=O)NC(=O)[C@H](Cc3c[nH]c4ccccc34)N(C)C(=O)[C@H](C(C)C)NC(=O)[C@H](Cc3cccc(Cl)c3)N(C)C(=O)[C@H](C(C)C)NC(=O)[C@H](C)NC(=O)CSC[C@@H](C(N)=O)NC(=O)[C@H](Cc3ccc(O)cc3)N(C)C(=O)[C@H](Cc3ccccc3)NC(=O)[C@@H](CCCNC(=N)N)NC(=O)[C@H](CCCNC(=N)N)NC(=O)[C@H]([C@@H](C)CC)NC(=O)[C@H]([C@@H](C)CC)NC2=O)cc1 [compound 319] | 7.00 to 9.00
9 | CC[C@H](C)[C@@H]1NC(=O)[C@H](Cc2ccc(OC)cc2)NC(=O)[C@H](Cc2ccc(O)cc2)NC(=O)[C@H](CC(N)=O)NC(=O)[C@H](Cc2c[nH]c3ccccc23)N(C)C(=O)[C@H](C(C)C)NC(=O)[C@H](Cc2cccc(Cl)c2)N(C)C(=O)[C@H](C(C)C)NC(=O)[C@H](C)NC(=O)CSC[C@@H](C(=O)NCCOCCOCCOCCOCCC(N)=O)NC(=O)[C@H](Cc2ccc(O)cc2)N(C)C(=O)[C@H](Cc2ccccc2)NC(=O)[C@@H](CCCNC(=N)N)NC(=O)[C@H](CCCNC(=N)N)NC(=O)[C@H](CC2CC2)NC1=O [compound 328] ({CH2CO}-AV[NMePhe(3-Cl)]V[NMeW]NYY(Me)I[Ala(cPr)]R[dR]F[NMeY]C[PEG4]-NH2; thioether N-15) | 7.00 to 9.00
10 | CC[C@H](C)[C@@H]1NC(=O)[C@H](Cc2ccc(OC)cc2)NC(=O)[C@H](Cc2ccc(O)cc2)NC(=O)[C@H](CC(N)=O)NC(=O)[C@H](Cc2c[nH]c3ccccc23)N(C)C(=O)[C@H](C(C)C)NC(=O)[C@H](Cc2cccc(Cl)c2)N(C)C(=O)[C@H](C(C)C)NC(=O)[C@H](C)NC(=O)CSC[C@@H](C(=O)NCCOCCOCCOCCOCCC(N)=O)NC(=O)[C@H](Cc2ccc(O)cc2)N(C)C(=O)[C@H](Cc2ccccc2)NC(=O)[C@@H](CCCNC(=N)N)NC(=O)[C@H](CCCNC(=N)N)NC(=O)[C@H](CC(C)(C)C)NC1=O [compound 329] ({CH2CO}-AV[NMePhe(3-Cl)]V[NMeW]NYY(Me)I[tBuAla]R[dR]F[NMeY]C[PEG4]-NH2; thioether N-15) | 7.00 to 9.00
11 | CC[C@@H](C)[C@@H]1NC(=O)[C@H]([C@@H](C)CC)NC(=O)[C@H](Cc2ccc(OC)cc2)NC(=O)[C@H](Cc2ccc(O)cc2)NC(=O)[C@H](CC(N)=O)NC(=O)[C@H](Cc2c[nH]c3ccccc23)N(C)C(=O)[C@H](C(C)C)NC(=O)[C@H](Cc2cccc(Cl)c2)N(C)C(=O)[C@H](C(C)C)NC(=O)[C@H](C)NC(=O)CSC[C@@H](C(=O)NCCOCCOCCOCCOCCC(N)=O)NC(=O)[C@H](Cc2ccc(O)cc2)N(C)C(=O)[C@H](Cc2ccccc2)NC(=O)[C@@H](CCCNC(=N)N)NC(=O)[C@H](CCCNC(=N)N)NC1=O [compound 330] | 7.00 to 9.00
12 | CCCCC[C@@H]1NC(=O)[C@H]([C@@H](C)CC)NC(=O)[C@H](Cc2ccc(OC)cc2)NC(=O)[C@H](Cc2ccc(O)cc2)NC(=O)[C@H](CC(N)=O)NC(=O)[C@H](Cc2c[nH]c3ccccc23)N(C)C(=O)[C@H](C(C)C)NC(=O)[C@H](Cc2cccc(Cl)c2)N(C)C(=O)[C@H](C(C)C)NC(=O)[C@H](C)NC(=O)CSC[C@@H](C(=O)NCCOCCOCCOCCOCCC(N)=O)NC(=O)[C@H](Cc2ccc(O)cc2)N(C)C(=O)[C@H](Cc2ccccc2)NC(=O)[C@@H](CCCNC(=N)N)NC(=O)[C@H](CCCNC(=N)N)NC1=O [compound 335] ({CH2CO}-AV[NMePhe(3-Cl)]V[NMeW]NYY(Me)I[Ahp(2)]R[dR]F[NMeY]C[PEG4]-NH2; thioether N-15) | 7.00 to 9.00
13 | CC[C@H](C)[C@@H]1NC(=O)[C@H](Cc2ccc(OC)cc2)NC(=O)[C@H](Cc2ccc(O)cc2)NC(=O)[C@H](CC(N)=O)NC(=O)[C@H](Cc2c[nH]c3ccccc23)N(C)C(=O)[C@H](C(C)C)NC(=O)[C@H](Cc2cccc(Cl)c2)N(C)C(=O)[C@H](C(C)C)NC(=O)[C@H](C)NC(=O)CSC[C@@H](C(=O)N[C@H](CCC(=O)O)C(N)=O)NC(=O)[C@H](Cc2ccc(O)cc2)N(C)C(=O)[C@H](Cc2ccccc2)NC(=O)[C@@H](CCCNC(=N)N)NC(=O)[C@H](C)NC(=O)[C@H]([C@@H](C)CC)NC1=O [compound 349] ({CH2CO}-AV[NMePhe(3-Cl)]V[NMeW]NYY(Me)IIA[dR]F[NMeY]C[dE]-NH2; thioether N-15; C-terminus assumed) | < 6.00
14 | CC[C@H](C)[C@@H]1NC(=O)[C@H](Cc2ccc(OC)cc2)NC(=O)[C@H](Cc2ccc(O)cc2)NC(=O)[C@H](CC(N)=O)NC(=O)[C@H](Cc2c[nH]c3ccccc23)N(C)C(=O)[C@H](C(C)C)NC(=O)[C@H](Cc2cccc(Cl)c2)N(C)C(=O)[C@H](C(C)C)NC(=O)[C@H](C)NC(=O)CSC[C@@H](C(=O)NCCOCCOCCOCCOCCC(N)=O)NC(=O)[C@H](Cc2ccc(O)cc2)N(C)C(=O)[C@H](Cc2ccccc2)NC(=O)[C@H](CCCCNC(C)=O)NC(=O)C(C)(C)NC(=O)[C@H]([C@@H](C)CC)NC1=O [compound 350] | 6.00 to 7.00
